This is an account of results in the supplement of paper PMC3334620.

Whole data set: some 33,000 sequences, median “E-score (-0.5 to 0.5)” near -0.013, cut for the highest 2% near 0.3. The list shows a part of the results.

This test concerns the target T1, Msn1 (UniProt P22148).
T1 sequence: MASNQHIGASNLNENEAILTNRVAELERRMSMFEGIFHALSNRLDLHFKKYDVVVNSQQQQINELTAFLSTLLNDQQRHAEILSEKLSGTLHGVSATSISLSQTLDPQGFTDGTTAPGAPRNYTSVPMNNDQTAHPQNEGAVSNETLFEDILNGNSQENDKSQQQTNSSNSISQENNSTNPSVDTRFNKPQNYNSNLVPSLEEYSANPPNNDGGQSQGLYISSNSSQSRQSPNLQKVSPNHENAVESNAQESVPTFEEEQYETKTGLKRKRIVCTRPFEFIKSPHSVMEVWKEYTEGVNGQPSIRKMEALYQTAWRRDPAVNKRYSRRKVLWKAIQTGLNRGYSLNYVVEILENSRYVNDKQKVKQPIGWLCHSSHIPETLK
Briefly: PBM E-score (8-mer binding enrichment) (E-score (-0.5 to 0.5)); higher = stronger / more preferred TF binding; most listed sequences are background and not binding sites. The settings on record: protein concentration: 200 nM; construct: GST-full length. In a few lines:
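The E-score, a modified Wilcoxon-Mann-Whitney statistic, was computed by the Universal PBM Analysis Suite for every ungapped eight-base word pooled with its reverse complement. Scans behind it were normalised with masliner after bound GST-tagged yeast transcription factors were detected with fluorescent anti-GST. The proteins, at about 100-200 nM, had been applied to universal all-10-mer Agilent arrays made double-stranded by primer extension.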
Take CTACTTTC: the “PBM E-score” value is 0.0454.
AACGGACG: the “PBM E-score” value is 0.0165.
Consider CGCGGCGA, for which the “PBM E-score” value was 0.176.
The same measure for AGAGTGAT: 0.0647.
Take GTTAATTA: the “PBM E-score” value worked out at 0.115.
As for CTTTAACA, the “PBM E-score” value is 0.0851.
The value for CTATTAGA was -0.141; that for ATGGTCTA was -0.143.
The value for CCAATAGG was -0.0111.
The same measure for GAAACGTC: 0.0634.
Take TCTGAACA: the “PBM E-score” value stood at 0.0541.
The value for AAGTTACC was 0.123; that for CTACGAAC was 0.0953.
The same measure for CCGGCCCA: -0.312; for CCCGATAC: 0.133.
The same measure for GTGCCAAA: -0.0718.
On to AAATATCA, for which the “PBM E-score” value worked out at 0.135.
Regarding ATACAGAT, the “PBM E-score” value was determined as 0.2.
The value for CTCGCATA was -0.0411.
The value for ACTAGTCA was -0.064.
Regarding AAGGGTTG, the “PBM E-score” value was -0.06.
With CTACAAGC, the “PBM E-score” value is -0.064.
The same measure for ACAAAATG: 0.312; for GGTAGCGA: -0.0657.
With CTCGTTCC, the “PBM E-score” value is -0.0798.
The value for TCCTATCA was -0.12; that for ATTCTATA was 0.159.
The same measure for ATACGCTG: -0.0534.
The same measure for CTAAGGTC: -0.0691; for GGACGAGA: 0.172; for CATGGGCG: 0.0816.
On to AAGAACTC, for which the “PBM E-score” value is -0.0785.
The same measure for GCCTGAGA: -0.014; for ATGTCATG: 0.411.
The value for GCAAGCAC was -0.21; that for TATACACA was 0.0182.
The same measure for ATTCGTAA: 0.0882; for ATCATGTA: 0.0784.
Take GATACCGC: the “PBM E-score” value stood at 0.0847.
As to CGAGACCA, the “PBM E-score” value is -0.00458.
The value for CGTCACAA was 0.137; that for CAGTTAGA was 0.0714; that for CCCCTCTC was -0.253.
On to ATGATCGC, for which the “PBM E-score” value is -0.0888.
The value for AGCGGGAA was 0.0246.
Turning to ATGACACA, the “PBM E-score” value stood at 0.287.
As to CTTCCTCA, the “PBM E-score” value was -0.228.
As to AATTGATA, the “PBM E-score” value turned out to be 0.217.
As to CAGTACCA, the “PBM E-score” value was -0.0517.
For the sequence AGATCCTG, the “PBM E-score” value was -0.014.
The value for CAGTGGAA was -0.0963; that for GTTACGCA was -0.00599.
The same measure for CCGCATCA: -0.0818.
Turning to AATTGACG, the “PBM E-score” value was -0.024.
In the case of CGGATACA, the “PBM E-score” value turned out to be 0.0726.
As for CCTTAACC, the “PBM E-score” value is -0.151.
Turning to CCAGAGCA, the “PBM E-score” value is -0.186.
GATTAGGC: the “PBM E-score” value turned out to be 0.134.
The value for ACGATTAC was 0.0928; that for CATGGCCA was -0.0573.
The same measure for TCGAGAGA: -0.091; for GCACGACA: -0.045.
For GTGATTAA, the “PBM E-score” value was -0.0255.
The same measure for GATTCTAC: -0.049.
The same measure for ACGGAATC: 0.109.
The same measure for AAAAGTCG: 0.248.
Consider CGGCCGCA, for which the “PBM E-score” value is -0.222.
Regarding AAACCAGT, the “PBM E-score” value was -0.0705.
CAATCTCA: the “PBM E-score” value was -0.0159.
The value for GCGGTTCC was -0.0262; that for AAACGCGT was 0.103.
On to AACTCCAT, for which the “PBM E-score” value was determined as 0.0337.
Consider ATACTCCA, for which the “PBM E-score” value turned out to be 0.046.
With CCCGGTTA, the “PBM E-score” value was -0.154.
The same measure for ACCCTGTG: -0.118; for GCAGCCAC: -0.161.
With CGAACTCA, the “PBM E-score” value was -0.058.
The value for TAGGAGCA was -0.0495; that for AATATTTC was 0.103; that for AGTTTGCG was 0.0266.
The value for CGATCGTA was 0.187; that for AAGAATGG was -0.0359.
Turning to CTGCCCTA, the “PBM E-score” value is -0.0394.
The value for GATGTCGA was 0.0163; that for CTAAGCCC was -0.154; that for CTACCTAG was -0.18.
